Reference: ChEMBL document CHEMBL1201862, “PubChem BioAssay data set” (2004)
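1) Cells in 96-well plates. 2) Compound, 48 h, 5 concentrations. 3) Linear interpolation between surrounding doses. 4) Unreached endpoint = highest concentration. Here, GI50 denotes the concentration required for 50% inhibition of growth.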 The source made the active and inactive calls. No stated cut-off is given here; in the data, active = GI50 up to about 1.1 µM and inactive = higher.

tested on: NCI-H322M; test: DTP human tumour cell line panel, 48 h

| Compound | GI50 |
| --- | --- |
| C=C(Br)CN(C)CC(=C)Br | inactive: > 100 µM |
| O=c1c2ccccc2sc2nc(CCl)nn12 | inactive: 6.58 µM |
| NC(=O)C12CC3CC(CC(Br)(C3)C1)C2 | inactive: > 100 µM |
| CN(C)CCCNc1ccnc2c([N+](=O)[O-])cccc12 | inactive: 21.1 µM |
| COC(=O)C1(C(=O)OC)CC(=O)c2c(OC(=O)c3cccc(OC)c3C#N)ccc(OC(=O)c3cccc(OC)c3C#N)c2C1 | inactive: > 100 µM |
| O=C(Nn1c(-c2ccccc2)nc2ccccc2c1=O)c1cccc([N+](=O)[O-])c1 | inactive: > 100 µM |
| COc1ccc2c(C)cc(N/N=C/c3ccc(OC)c4ccccc34)nc2c1 | inactive: 15.2 µM |
| O=C1C=C(N2CCCC2)C=C(N2CCCC2)C1 | inactive: > 100 µM |
| S=C(c1c[nH]c2ccccc12)N1CCCCC1 | inactive: > 100 µM |
| COc1cc(/C=C/C=C2\CCC/C(=C\C=C\c3ccc(O)c(OC)c3)C2=O)ccc1O | inactive: 13.5 µM |
| CC1NC(=O)C(C)C(c2ccccc2)N(N=O)C1c1ccccc1 (centres undefined) | inactive: > 100 µM |
| NS(=O)(=O)c1ccc(NNc2c3ccccc3nc3c(C(=O)Nc4ccc(S(N)(=O)=O)cc4)cccc23)cc1 | inactive: 31.5 µM |
| Cc1ccc(NC(=O)CCC(=O)C(C#N)c2ccc(Cl)cc2)cc1C (centres undefined) | inactive: > 100 µM |
| Clc1nc(NC23CC4CC(CC(C4)C2)C3)nc(NC23CC4CC(CC(C4)C2)C3)n1 | inactive: > 39.5 µM |
| O=C1CCCC2C3CC(CN12)C1CCCCN1C3.[O-][Cl+3]([O-])([O-])O (centres undefined) | inactive: > 100 µM |
| c1cncc(CSc2nc3ccccc3nc2-c2cccs2)c1 | inactive: > 100 µM |
| COC(=O)c1ccc(NC(=O)O/N=C(\Cl)C(C)C)cc1 | inactive: 16.4 µM |
| COc1cc(Nc2nc3cc(C(F)(F)F)ccc3nc2C)cc(OC)c1OC | inactive: 4.09 µM |
| C/C(=N\NC(=S)Nc1ccc([N+](=O)[O-])cc1S(=O)(=O)O)c1ccccn1 | inactive: 28.9 µM |
| CSc1nc(C)c(CCOC(C)=O)c(N=P(c2ccccc2)(c2ccccc2)c2ccccc2)n1 | inactive: 9.93 µM |
| COC(=O)[C@]12CC=C3O[C@@H]4OC5(CCCCC5)O[C@@H]4C3[C@@H]1C(=O)CCC2=O (some centres undefined) | inactive: > 100 µM |
| CCOC(=O)Cn1c(=O)c2cc(-c3ccccc3)cc3c(Cl)nc4c(OC)c(OC)cc1c4c32 | inactive: 10.8 µM |

| Compound | GI50 |
| --- | --- |
| COC(=O)C1Cc2c([nH]c3ccccc23)C(c2ccccc2O)N1Cc1ccccc1 (centres undefined) | inactive: 28.4 µM |
| COC1/C=C\C=C(/C)C(=O)NC2=CC(=O)C(NCCCl)=C(CC(C)CC(OC)C(O)C(C)/C=C(/C)C1OC(N)=O)C2=O (centres undefined) | inactive: 1.54 µM |
| N/C(=N\O)N/N=C\c1ccccc1O | inactive: 20.2 µM |
| O=C(CC(=O)N1N=C(N2c3ccccc3Sc3ccccc32)CC1c1ccccc1)Nc1ccccc1Cl (centres undefined) | inactive: > 100 µM |
| O=c1c2ccccc2[nH]c2ccc3c(Cl)n[nH]c3c12 | inactive: 41.4 µM |
| COc1ccc(-c2cc(-c3cc(C)cc(Br)c3O)no2)cc1 | inactive: 9.89 µM |
| CCC1(O)CC(O)c2c(O)c3c(c(O)c2C1C(=O)OC)C(=O)c1cccc(O)c1C3=O (centres undefined) | inactive: 3.72 µM |
| Nc1ccc(-c2ncc3cc(-c4cccc(-c5cc6cnc(-c7ccc(N)cc7)nc6c6ccccc56)c4)c4ccccc4c3n2)cc1 | inactive: > 100 µM |
| CCOC(=O)C(NC(=O)CC(C)C)(Nc1ccc(S(=O)(=O)Nc2nc(C)cc(C)n2)cc1)C(F)(F)F (centres undefined) | inactive: > 100 µM |
| CSC1=C(C#N)C(=S)N=C(N)C1C(=O)Nc1ccc(C)cc1 (centres undefined) | inactive: > 100 µM |
| C(=N/NC1=NCCN1)/c1c2ccccc2c(/C=N\NC2=NCCN2)c2ccccc12 | active: 0.104 µM |
| COc1cc(/C=C2/C(=O)N/C(=N\C(C)=O)N2C)ccc1OC(C)=O | inactive: > 100 µM |
| CC(=O)c1cccc(Nc2nc3ccccc3c3occc23)c1 | inactive: 25.5 µM |
| CCCCN(CCCC)CC(C(=O)Nc1ccc([N+](=O)[O-])cc1[N+](=O)[O-])/C(C)=N\NC(=O)C[N+](C)(C)C (centres undefined) | inactive: > 100 µM |
| CCOC(=O)c1c(NC(=O)c2ccccc2)sc2c1CCCC2 | inactive: > 100 µM |
| CC1(C)CC(C2=NCCO2)CC(C)(C)N1 | inactive: > 100 µM |
| CCOC(=O)NC(=O)c1cn(CCN2CCN(C(=O)CCCCCCCCCCC(=O)N3CCN(CCn4cc(C(=O)NC(=O)OCC)c(=O)[nH]c4=O)CC3)CC2)c(=O)[nH]c1=O | inactive: > 100 µM |
| CC(C)c1cccc(C(C)C)c1NC(=O)C(=O)C1CCC2=C(Sc3ccccc3N2)C1=O (centres undefined) | inactive: > 100 µM |
| COc1ccc(OC(=O)N2C/C(=C\c3ccccc3)C(=O)/C(=C/c3ccccc3)C2)cc1 | inactive: 25.7 µM |
| C=C(C)CCC1CC=[N+]([O-])OC1C(C)(C)C (centres undefined) | inactive: 97.9 µM |
| CC(=O)NNC1=NN(C(C)=O)C2(S1)C(=O)Nc1ccc(C)cc12 (centres undefined) | inactive: > 100 µM |
| O=C(Nc1ccccc1)c1cccc([N+](=O)[O-])c1 | inactive: > 100 µM |

| Compound | GI50 |
| --- | --- |
| Cc1nc(Nc2ccc([N+](=O)[O-])cc2)sc1C(/C=C/c1ccc(N(C)C)cc1)=N/NC(=O)c1ccccc1 | inactive: 65.9 µM |
| Cc1nc(C(N)=O)c(N)n1CCN1CCN(C(=O)CCCCCCCCCCNC2NC=Nc3[nH]cnc32)CC1 (centres undefined) | inactive: 41.4 µM |
| COC(=O)CCc1ccc2c(c1)[C@H](C(=O)OC)[C@@H](c1ccc(O)cc1)O2 | inactive: > 100 µM |
| CCOC(=O)CNC1=NNS(=O)(=O)c2ccccc21 | inactive: 61.2 µM |
| CC1CC(C)(O)C2C3(C)CCCC2(COC3=O)C12CCC1(CCOC1=O)O2 (centres undefined) | inactive: > 250 µM |
| S=C1NCCN1 | inactive: > 100 µM |
| CC(C)c1ccc2c(c1)[C@@]1(C)CC[C@H](C)C(C)(C)C1CC2 (some centres undefined) | inactive: 17.4 µM |
| COc1cc2c(cc1OC)C(C(c1ccccc1)c1ccccc1)N(C)CC2 (centres undefined) | inactive: > 100 µM |
| COc1cc2c(oc(=O)c3c4oc([Si](C)(C)C)cc4cc(OC)c23)c2cccc(OCc3ccccc3)c12 | inactive: > 38.1 µM |
| COc1ccc(Cc2c3cc(OC)c(OC)cc3cc[n+]2C)cc1 | inactive: > 20.3 µM |
| CN(C)C(=S)/N=c1\ssc(=S)n1Cc1cccnc1 | inactive: 7.96 µM |
| CCCCn1c(C)c2c(c1C)C(=O)N(CC(O)CN1CCc3ccccc3C1)C2=O (centres undefined) | inactive: > 100 µM |
| CCC1C[N+]23CCc4c([nH]c5ccccc45)C2CC1CC3 (centres undefined) | inactive: > 100 µM |
| COc1ccc(/N=C2/SC(=N/N=c3\sc4ccccc4n3C)S/C2=N/c2ccc(OC)cc2)cc1 | inactive: > 100 µM |
| Cc1nnc(-n2c(O)cc(=O)n(-c3ccccc3)c2=S)nc1/C=C/c1ccc(N(C)C)cc1 | inactive: 18 µM |
| COC(=O)C(C(=O)C(=O)Nc1c(C)cccc1C)c1cnc2ccccc2n1 (centres undefined) | inactive: > 100 µM |
| N#C[BH2-][n+]1cn(C2CC(OP(=O)(O)OCC3OC(n4ccc(N)nc4=O)CC3O)C(CO)O2)c2nc(N)[nH]c(=O)c21 (centres undefined) | inactive: > 100 µM |
| COc1cc2c(cc1O)[C@H](C)C(c1ccccc1OC)O2 (some centres undefined) | inactive: 5.45 µM |
| NC(=O)CCC(N=C(N)c1csc(C2OC(CO)C(O)C2O)n1)C(=O)O (centres undefined) | inactive: > 100 µM |
| C[N+]1(CCN[N+]2(C)CCCCC2)CCc2ccccc2C1 (centres undefined) | inactive: > 100 µM |
